Source: the supplement of paper PMC8512760
This is one part of the list. Many values rest on one well or one pass, so single values are uncertain.

Tests used:
Experiment in all cases: cell viability relative to vehicle (% of vehicle); basal-like triple-negative breast cancer lines; higher = less cytotoxic
Conditions in all cases: 10 µM; 72 h
HCC-1143 = test system: HCC-1143
HCC-1187 = test system: HCC-1187
MDA-468 = test system: MDA-468
SUM-149 = test system: SUM-149
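Further: stably firefly luciferase-GFP labeled cells in 96-well plates, viability read as luciferase photon flux after d-luciferin addition, treated wells normalized to vehicle wells, single-dose high-throughput screen.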

| Structure (SMILES) | cell viability (HCC-1143) | cell viability (HCC-1187) | cell viability (MDA-468) | cell viability (SUM-149) |
| --- | --- | --- | --- | --- |
| CCCNC(=O)NS(=O)(=O)c1ccc(Cl)cc1 [Chlorpropamide] | 69.4 | 97.6 | 101 | 85.1 |
| Nc1nc(=O)c2ncn(CCC(CO)CO)c2[nH]1 [Penciclovir] | 93.6 | 99.4 | 119 | 110 |
| O=C(O)C1=CC(=NNc2ccc(S(=O)(=O)Nc3ccccn3)cc2)C=CC1=O [Sulfasalazine] | 110 | 76.3 | 101 | 145 |
| CC(C)n1c(C=CC(O)CC(O)CC(=O)[O-])c(-c2ccc(F)cc2)c2ccccc21.[Na+] (configuration not stated) [Fluvastatin Sodium] | 85.6 | 53.1 | 43.6 | 84.2 |
| CC12CCC3c4ccc(O)cc4CCC3C1CC(O)C2O (configuration not stated) [Estriol] | 70.1 | 112 | 91.5 | 103 |
| COc1cc(C=CC(=O)CC(=O)C=Cc2ccc(O)c(OC)c2)ccc1O [Curcumin] | 94.6 | 99 | 90 | 126 |
| CC(C)(C)NCC(O)c1ccc(O)c(CO)c1.O=S(=O)(O)O (configuration not stated) [Salbutamol Sulfate] | 74.5 | 94.6 | 150 | 93.2 |
| CNC(=C[N+](=O)[O-])NCCSCc1csc(CN(C)C)n1 [Nizatidine] | 79.8 | 98.4 | 98.8 | 105 |
| CN(Cc1cnc2nc(N)nc(N)c2n1)c1ccc(C(=O)NC(CCC(=O)O)C(=O)O)cc1 (configuration not stated) [Methotrexate] | 84 | 73.8 | 56.3 | 128 |
| O=c1ccc2ccccc2o1 [Coumarin] | 94 | 88.7 | 108 | 108 |
| CN(C)CCN1C(=O)c2cccc3cc(N)cc(c23)C1=O [Amonafide] | 112 | 46.6 | 66.5 | 70.7 |
| CCCNC(C)C(=O)Nc1ccccc1C (configuration not stated) [Prilocaine] | 80.9 | 88.4 | 91.4 | 94.9 |
| COCCOC(=O)C1=C(C)NC(C)=C(C(=O)OCC=Cc2ccccc2)C1c1cccc([N+](=O)[O-])c1 (configuration not stated) [Cilnidipine] | 85.1 | 86.6 | 82.7 | 101 |
| NCC1CCC(C(=O)O)CC1 (configuration not stated) [Tranexamic Acid] | 89.4 | 110 | 118 | 108 |
| Cc1ccc(C(=O)c2cc(O)c(O)c([N+](=O)[O-])c2)cc1 [Tolcapone] | 83.6 | 110 | 98.3 | 100 |
| O=C([O-])c1ccccc1O.[Na+] [Sodium salicylate] | 78.8 | 77.2 | 95.1 | 105 |
| N#CCC(C1CCCC1)n1cc(-c2ncnc3[nH]ccc23)cn1 (configuration not stated) | 79.4 | 105 | 90.7 | 89.7 |
| O=c1c(O)c(-c2ccc(O)c(O)c2)oc2cc(O)cc(O)c12 [Quercetin] | 169 | 106 | 129 | 155 |
| O=c1cc[nH]c(=S)[nH]1 [2-Thiouracil] | 76.3 | 85.4 | 109 | 119 |
| OCC(O)C(O)C(O)C(O)CO (configuration not stated) [Sorbitol] | 78.8 | 74 | 96.5 | 106 |
| CCCc1ncc(C[n+]2ccccc2C)c(N)n1.Cl.[Cl-] [Amprolium HCl] | 95.6 | 87.2 | 101 | 111 |
| Cc1cc(C(C)(C)C)cc(C)c1CC1=NCCN1.Cl [Xylometazoline HCl] | 92.9 | 124 | 103 | 91.3 |
| CN(C)C(=N)N=C(N)N.Cl [Metformin HCl] | 82.9 | 95.1 | 94.6 | 110 |
| CCC(C)C(=O)OC1CC(O)C=C2C=CC(C)C(CCC(O)CC(O)CC(=O)[O-])C21.[Na+] (configuration not stated) [Pravastatin sodium] | 98.5 | 87.7 | 106 | 112 |
| CNCC(O)C(O)C(O)C(O)CO.Cc1c(Nc2ncccc2C(=O)O)cccc1C(F)(F)F [Flunixin Meglumin] | 103 | 88.6 | 108 | 120 |
| COc1cc2c(cc1OC)C(=O)C(CC1CCN(Cc3ccccc3)CC1)C2.Cl (configuration not stated) [Donepezil HCl] | 112 | 108 | 100 | 123 |
| Cc1cn(C2CC(N=[N+]=[N-])C(CO)O2)c(=O)[nH]c1=O (configuration not stated) [Zidovudine] | 64.7 | 93.4 | 105 | 98.3 |
| Cn1cnc2c(F)c(Nc3ccc(Br)cc3F)c(C(=O)NOCCO)cc21 | 87.9 | 75.4 | 98.2 | 99.1 |
